Source: the supplement of paper PMC8728848
The other results are listed elsewhere or left out.

Columns and labels:
Assay in all cases: glycan array binding signal (z-score within array); higher = stronger binding
Details in all cases: glycan notation: IUPAC condensed, linker removed
Neu5Ac(a2-3)Gal = target: Neu5Ac(a2-3)Gal
In short: (§1)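 Arrays were curated from the Consortium for Functional Glycomics database, 3228 in total, and kept only where the protein sequence was available. Binding is expressed as a within-array Z-score. This score was averaged across arrays of the same protein sequence at different concentrations or buffers and across linkers, and negative values can be read as non-binding.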

[1] = target: Neu5Ac(a2-3)Gal(b1-3)GalNAc
In short: as §1

[2] = target: Neu5Ac(a2-3)Gal(b1-3)GalNAc(b1-3)Gal(a1-4)Gal(b1-4)Glc
In short: as §1

[3] = target: Neu5Ac(a2-3)Gal(b1-3)GalNAc(b1-4)[Neu5Ac(a2-3)]Gal(b1-4)Glc
In short: as §1

[4] = target: Neu5Ac(a2-3)Gal(b1-3)GalNAc(b1-4)[Neu5Ac(a2-8)Neu5Ac(a2-3)]Gal(b1-4)Glc
In short: as §1

[5] = target: Neu5Ac(a2-3)Gal(b1-3)GalNAc6S
In short: as §1

[6] = target: Neu5Ac(a2-3)Gal(b1-3)GlcNAc
In short: as §1

[7] = target: Neu5Ac(a2-3)Gal(b1-3)GlcNAc(b1-2)Man
In short: as §1

[8] = target: Neu5Ac(a2-3)Gal(b1-3)GlcNAc(b1-2)Man(a1-3)[GlcNAc(b1-4)][Neu5Ac(a2-3)Gal(b1-3)GlcNAc(b1-2)Man(a1-6)]Man(b1-4)GlcNAc(b1-4)GlcNAc
In short: as §1

[9] = target: Neu5Ac(a2-3)Gal(b1-3)GlcNAc(b1-2)Man(a1-3)[Neu5Ac(a2-3)Gal(b1-3)GlcNAc(b1-2)Man(a1-6)]Man(b1-4)GlcNAc(b1-4)GlcNAc
In short: as §1

[10] = target: Neu5Ac(a2-3)Gal(b1-3)GlcNAc(b1-3)Gal(b1-3)GlcNAc
In short: as §1

[11] = target: Neu5Ac(a2-3)Gal(b1-3)GlcNAc(b1-3)Gal(b1-4)GlcNAc
In short: as §1

[12] = target: Neu5Ac(a2-3)Gal(b1-3)GlcNAc(b1-3)GalNAc
In short: as §1

[13] = target: Neu5Ac(a2-3)Gal(b1-3)GlcNAc(b1-4)Gal(b1-4)Glc
In short: as §1

[14] = target: Neu5Ac(a2-3)Gal(b1-3)GlcNAc(b1-6)GalNAc
In short: as §1

[15] = target: Neu5Ac(a2-3)Gal(b1-3)GlcNAc6S
In short: as §1

[16] = target: Neu5Ac(a2-3)Gal(b1-3)[Fuc(a1-4)]GlcNAc
In short: as §1

[17] = target: Neu5Ac(a2-3)Gal(b1-3)[Fuc(a1-4)]GlcNAc(b1-3)Gal(b1-3)[Fuc(a1-4)]GlcNAc
In short: as §1

[18] = target: Neu5Ac(a2-3)Gal(b1-3)[Fuc(a1-4)]GlcNAc(b1-3)Gal(b1-4)[Fuc(a1-3)]GlcNAc
In short: as §1

[19] = target: Neu5Ac(a2-3)Gal(b1-3)[GlcNAc(b1-6)]GalNAc
In short: as §1

[20] = target: Neu5Ac(a2-3)Gal(b1-3)[Neu5Ac(a2-6)]GalNAc
In short: as §1

[21] = target: Neu5Ac(a2-3)Gal(b1-3)[Neu5Ac(a2-6)]GlcNAc(b1-3)[Fuc(a1-3)[Gal(b1-4)]GlcNAc(b1-6)]Gal(b1-4)Glc
In short: as §1

[22] = target: Neu5Ac(a2-3)Gal(b1-3)]Neu5Ac(a2-3)Gal(b1-4)]GlcNAc
In short: as §1

Neu5Ac(a2-3)Gal(b1-4)Glc = target: Neu5Ac(a2-3)Gal(b1-4)Glc
In short: as §1

[23] = target: Neu5Ac(a2-3)Gal(b1-4)GlcNAc
In short: as §1

[24] = target: Neu5Ac(a2-3)Gal(b1-4)GlcNAc(b1-2)Man
In short: as §1

[25] = target: Neu5Ac(a2-3)Gal(b1-4)GlcNAc(b1-2)Man(a1-3)[GlcNAc(b1-4)][Neu5Ac(a2-3)Gal(b1-4)GlcNAc(b1-2)Man(a1-6)]Man(b1-4)GlcNAc(b1-4)GlcNAc
In short: as §1

[26] = target: Neu5Ac(a2-3)Gal(b1-4)GlcNAc(b1-2)Man(a1-3)[Neu5Ac(a2-3)Gal(b1-4)GlcNAc(b1-2)Man(a1-6)]Man(b1-4)GlcNAc(b1-4)GlcNAc
In short: as §1

[27] = target: Neu5Ac(a2-3)Gal(b1-4)GlcNAc(b1-2)Man(a1-3)[Neu5Ac(a2-3)Gal(b1-4)GlcNAc(b1-2)Man(a1-6)]Man(b1-4)GlcNAc(b1-4)[Fuc(a1-6)]GlcNAc
In short: as §1

[28] = target: Neu5Ac(a2-3)Gal(b1-4)GlcNAc(b1-2)Man(a1-3)[Neu5Ac(a2-6)Gal(b1-4)GlcNAc(b1-2)Man(a1-6)]Man(b1-4)GlcNAc(b1-4)GlcNAc
In short: as §1

[29] = target: Neu5Ac(a2-3)Gal(b1-4)GlcNAc(b1-2)[Neu5Ac(a2-3)Gal(b1-4)GlcNAc(b1-4)]Man(a1-3)[GlcNAc(b1-4)][Neu5Ac(a2-3)Gal(b1-4)GlcNAc(b1-2)[Neu5Ac(a2-3)Gal(b1-4)GlcNAc(b1-6)]Man(a1-6)]Man(b1-4)GlcNAc(b1-4)GlcNAc
In short: as §1

[30] = target: Neu5Ac(a2-3)Gal(b1-4)GlcNAc(b1-2)[Neu5Ac(a2-3)Gal(b1-4)GlcNAc(b1-4)]Man(a1-3)[GlcNAc(b1-4)][Neu5Ac(a2-3)Gal(b1-4)GlcNAc(b1-4)Man(a1-6)]Man(b1-4)GlcNAc(b1-4)GlcNAc
In short: as §1

[31] = target: Neu5Ac(a2-3)Gal(b1-4)GlcNAc(b1-2)[Neu5Ac(a2-3)Gal(b1-4)GlcNAc(b1-6)]Man(a1-6)[Neu5Ac(a2-3)Gal(b1-4)GlcNAc(b1-2)Man(a1-3)]Man(b1-4)GlcNAc(b1-4)GlcNAc
In short: as §1

[32] = target: Neu5Ac(a2-3)Gal(b1-4)GlcNAc(b1-2)[Neu5Ac(a2-3)Gal(b1-4)GlcNAc(b1-6)]Man(a1-6)[Neu5Ac(a2-3)Gal(b1-4)GlcNAc(b1-2)Man(a1-3)][GlcNAc(b1-4)]Man(b1-4)GlcNAc(b1-4)GlcNAc
In short: as §1

[33] = target: Neu5Ac(a2-3)Gal(b1-4)GlcNAc(b1-3)Gal
In short: as §1

[34] = target: Neu5Ac(a2-3)Gal(b1-4)GlcNAc(b1-3)Gal(b1-3)GlcNAc
In short: as §1

[35] = target: Neu5Ac(a2-3)Gal(b1-4)GlcNAc(b1-3)Gal(b1-4)GlcNAc
In short: as §1

[36] = target: Neu5Ac(a2-3)Gal(b1-4)GlcNAc(b1-3)Gal(b1-4)GlcNAc(b1-2)Man(a1-3)[Neu5Ac(a2-3)Gal(b1-4)GlcNAc(b1-3)Gal(b1-4)GlcNAc(b1-2)Man(a1-6)]Man(b1-4)GlcNAc(b1-4)GlcNAc
In short: as §1

[37] = target: Neu5Ac(a2-3)Gal(b1-4)GlcNAc(b1-3)Gal(b1-4)GlcNAc(b1-3)Gal(b1-4)GlcNAc
In short: as §1

[38] = target: Neu5Ac(a2-3)Gal(b1-4)GlcNAc(b1-3)Gal(b1-4)GlcNAc(b1-3)Gal(b1-4)GlcNAc(b1-2)Man(a1-3)[Neu5Ac(a2-3)Gal(b1-4)GlcNAc(b1-3)Gal(b1-4)GlcNAc(b1-3)Gal(b1-4)GlcNAc(b1-2)Man(a1-6)]GalNAc
In short: as §1

[39] = target: Neu5Ac(a2-3)Gal(b1-4)GlcNAc(b1-3)Gal(b1-4)GlcNAc(b1-3)GalNAc
In short: as §1

[40] = target: Neu5Ac(a2-3)Gal(b1-4)GlcNAc(b1-3)Gal(b1-4)GlcNAc(b1-3)[Neu5Ac(a2-3)Gal(b1-4)GlcNAc(b1-3)Gal(b1-4)GlcNAc(b1-6)]GalNAc
In short: as §1

[41] = target: Neu5Ac(a2-3)Gal(b1-4)GlcNAc(b1-3)Gal(b1-4)GlcNAc(b1-6)[Gal(b1-3)]GalNAc
In short: as §1

[42] = target: Neu5Ac(a2-3)Gal(b1-4)GlcNAc(b1-3)Gal(b1-4)[Fuc(a1-3)]GlcNAc
In short: as §1

[43] = target: Neu5Ac(a2-3)Gal(b1-4)GlcNAc(b1-3)GalNAc
In short: as §1

B1: CrataBL (Crataeva tapia), C0HJA4 (protein)
chain: AILTGVPYYILPSTSRAGFSPDNLRKNTSQLSCPLDLITQLRFPRRIGVPVIFTPQNSSLKVVPLSHNLNIHTCSDLWFCPESKIWTVKSSLTHGGSVVTTGGTFRSLGSWFRIERHGDSYKLVHCPRGSTPCRDVGIETVGGGGRRYLAPRDRPLAVRFTRASG
- glycan array binding signal (z-score) (Neu5Ac(a2-3)Gal): -0.42
- glycan array binding signal (z-score) [1]: 0.131
- glycan array binding signal (z-score) [2]: -0.325
- glycan array binding signal (z-score) [3]: 0.083
- glycan array binding signal (z-score) [4]: -0.399
- glycan array binding signal (z-score) [5]: 0.421
- glycan array binding signal (z-score) [6]: 0.134
- glycan array binding signal (z-score) [7]: 0.238
- glycan array binding signal (z-score) [8]: -0.326
- glycan array binding signal (z-score) [9]: -0.455
- glycan array binding signal (z-score) [10]: -0.299
- glycan array binding signal (z-score) [11]: -0.256
- glycan array binding signal (z-score) [12]: -0.479
- glycan array binding signal (z-score) [13]: -0.112
- glycan array binding signal (z-score) [14]: 0.598
- glycan array binding signal (z-score) [15]: 1.78
- glycan array binding signal (z-score) [16]: -0.062
- glycan array binding signal (z-score) [17]: -0.23
- glycan array binding signal (z-score) [18]: 0.645
- glycan array binding signal (z-score) [19]: -0.051
- glycan array binding signal (z-score) [20]: -0.452
- glycan array binding signal (z-score) [21]: 0.188
- glycan array binding signal (z-score) [22]: 0.416
- glycan array binding signal (z-score) (Neu5Ac(a2-3)Gal(b1-4)Glc): 0.553
- glycan array binding signal (z-score) [23]: -0.106
- glycan array binding signal (z-score) [24]: 0.595
- glycan array binding signal (z-score) [25]: -0.447
- glycan array binding signal (z-score) [26]: -0.001
- glycan array binding signal (z-score) [27]: -0.482
- glycan array binding signal (z-score) [28]: -0.302
- glycan array binding signal (z-score) [29]: -0.301
- glycan array binding signal (z-score) [30]: -0.454
- glycan array binding signal (z-score) [31]: 0.127
- glycan array binding signal (z-score) [32]: -0.386
- glycan array binding signal (z-score) [33]: -0.009
- glycan array binding signal (z-score) [34]: -0.212
- glycan array binding signal (z-score) [35]: 0.173
- glycan array binding signal (z-score) [36]: 0.515
- glycan array binding signal (z-score) [37]: -0.389
- glycan array binding signal (z-score) [38]: 2.17
- glycan array binding signal (z-score) [39]: -0.093
- glycan array binding signal (z-score) [40]: 0.18
- glycan array binding signal (z-score) [41]: 0.174
- glycan array binding signal (z-score) [42]: 0.392
- glycan array binding signal (z-score) [43]: -0.161
